In the supplement of paper PMC9446081 one finds relative growth data, which are given here for 16 molecules.

Screen size: about 39,000 compounds; about 220 (0.56%) showed activity. Some of the results follow.
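Also: static incubation at 37 °C against the wild-type strain, values averaged over two biological replicates.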

For the experiment, the system named is Escherichia coli K-12 BW25113. Description: relative growth (OD600 normalised to plate interquartile mean) (fraction); higher = less growth inhibition, active = 0.2 or less. Conditions: 50 µM; LB; incubation time: overnight (16-24 h).
In the case of `C[C@@H]1CN([C@@H](C)CO)C(=O)c2cc(NC(=O)Nc3ccc(C(F)(F)F)cc3)ccc2O[C@@H](C)CCCCO[C@H]1CN(C)C(=O)c1ccccc1`, the relative growth is inactive: 1.05.
To `C[C@@H]1CN([C@@H](C)CO)C(=O)c2cc(NC(=O)CCC(F)(F)F)ccc2O[C@@H](C)CCCCO[C@@H]1CN(C)CC1CCCCC1` belongs inactive: 0.932; to `COc1ccc(CN(C)C[C@@H]2OCCCC[C@H](C)Oc3ccc(NS(=O)(=O)c4ccc(OC)cc4)cc3C(=O)N([C@@H](C)CO)C[C@@H]2C)cc1`, inactive: 0.994; to `CCCNC(=O)N(C)C[C@H]1Oc2cc(C#Cc3ccccn3)ccc2S(=O)(=O)N([C@@H](C)CO)C[C@@H]1C`, inactive: 0.992.
With `Cc1cc(N)n(-c2nc(=O)cc(C)[nH]2)n1` the figure was inactive: 0.903; with `O[C@@H](COc1cccc2ncccc12)CN1CCN([C@@H]2c3ccccc3[C@@H]3[C@H](c4ccccc42)C3(F)F)CC1`, inactive: 0.99; with `C[C@H]1CN([C@@H](C)CO)C(=O)c2cc(NC(=O)Nc3cccc4ccccc34)ccc2O[C@H]1CN(C)Cc1ccc(-c2ccccc2)cc1`, inactive: 0.997.
For the molecule `Nc1ncccc1F`, the relative growth is inactive: 1.
To `O=C(O)c1cc(O)c2c(O)c3c(O[C@H]4O[C@H](CO)[C@@H](O)[C@H](O)[C@H]4O)cccc3c(-c3c4cc(C(=O)O)cc(O)c4c(O)c4c(O[C@H]5O[C@H](CO)[C@@H](O)[C@H](O)[C@H]5O)cccc34)c2c1` belongs inactive: 1.15; to `COc1ccc(CNC(=O)C[C@H]2C[C@@H]3c4cc(NS(=O)(=O)c5ccc(F)cc5)ccc4O[C@@H]3[C@@H](CO)O2)cc1`, inactive: 1.03; to `COc1cccc2c1C(=O)c1c(O)c3c(c(O)c1C2=O)CC(O)(C(C)=O)CC3OC1CC(N)C(O)C(C)O1.Cl` (stereo unspecified), inactive: 1.03.
Consider `C[C@H](CO)N1C[C@H](C)[C@H](CN(C)C(=O)Nc2ccc3c(c2)OCO3)Oc2cc(C#Cc3ccncc3)ccc2S1(=O)=O`, for which the relative growth was inactive: 1.04.
As for `Cc1noc(C)c1S(=O)(=O)N(C)C[C@H]1Oc2c(NC(=O)C3CCOCC3)cccc2C(=O)N([C@H](C)CO)C[C@H]1C`, the relative growth is inactive: 0.988.
Take `C[C@@H]1CCCCO[C@@H](CN(C)C(=O)Nc2ccc(C(F)(F)F)cc2)[C@@H](C)CN([C@H](C)CO)C(=O)c2cc(NC(=O)Nc3ccc(F)cc3)ccc2O1`: the relative growth is inactive: 1.
`CC(C)CC#Cc1cnc2c(c1)C(=O)N([C@@H](C)CO)C[C@@H](C)[C@H](CN(C)S(=O)(=O)c1cn(C)cn1)O2`: the relative growth is inactive: 0.97.
In the case of `C[C@@H]1CN([C@@H](C)CO)C(=O)c2cc(NC(=O)Cn3cnnn3)ccc2O[C@@H]1CN(C)C(=O)NC1CCCCC1`, the relative growth is inactive: 0.992.
